Assay results reported in PubChem BioAssay AID1508624 (National Center for Advancing Translational Sciences (NCATS), 2021).
Screen size: about 48,000 compounds; about 120 (0.25%) were called active. Roughly 4% stayed inconclusive and do not appear here. The call rests on the fitted dose curve; in most records, active means well fitted activation curve with a large enough effect; inconclusive means small, poorly fitted or top-dose-only effect, or another doubt; inactive means no such curve, though single readings can be large or run the other way. Some of the results follow.

Experiment: Primary qHTS for Identification of Small Molecule Activators of Huntingtin-Antisense Promoter Activity; further: nearly all actives have a fitted effect of over 55% in size
Conditions: HEK293 HTT-AS promoter firefly luciferase reporter (activity 0% = vehicle and -100% = no light), 24 h; series mostly up to 57.5 µM; activity change, positive = activation: at the top concentration
Outline: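 HEK293 Fluc reporter, 2,500 cells/well, 24 h pre-culture; cpds up to 57.5 uM final, 24 h 37 degrees C; Dual-Glo, 10 min RT; normalized vehicle = 0%, zero RLU = -100%.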

Activity change, positive = activation, inactive:
COc1ccccc1CCNC(=O)C(=O)NCC(c1ccco1)S(=O)(=O)c1ccc(C)cc1 (stereo not drawn) -24.4%
Cc1cc(C)c(S(=O)(=O)NCC(c2cccs2)S(=O)(=O)c2ccccc2)c(C)c1 (stereo not drawn) -38.9%
COc1ccccc1Nc1cc(C(=O)NCc2cccs2)c2ccccc2n1 -23.1%
Cc1cc(NC(=O)Nc2nc3c(s2)CCCCCC3)ccc1Br -11.4%
CCCCn1c(CNC(=O)c2ccc(OC)cc2)nnc1SCC(=O)Nc1ccc(OC)cc1 -22.1%
Cc1ccc(NCc2nc3ccccc3n2CCOc2ccccc2)cc1 11%
CCC(=O)N1CCc2cc(S(=O)(=O)CCC(=O)NCc3ccccc3OC)ccc21 -11.9%
CCNC(=O)Cc1ccc(NC(=O)N2CCCCc3ccccc32)cc1 4.56%
CCCn1c2ccccc2c2cnn(CC(=O)NCCc3ccc(OC)cc3OC)c(=O)c21 -12.9%
CCN(CC)c1nn2c(=O)c(C(=O)NCc3ccc(F)cc3)cnc2s1 -7.28%
O=C1c2ccccc2-c2n[nH]c3cccc1c23 -5.35%
Cc1nc(-c2ccccc2)sc1CCNS(=O)(=O)c1ccc(Br)cc1 -33.2%
O=C(c1ccc(OCCN2CCCCC2)cc1)c1c(-c2ccc(O)cc2)sc2cc(O)ccc12
CCn1nc(C)c(CCN(C)C(=O)Nc2cc(Cl)ccc2C)c1C 7.59%
COc1ccc(CC(=O)NCCc2csc(-c3ccc(Cl)cc3)n2)cc1 -34.5%
O=C(CC(NCc1cccnc1)C(=O)O)Nc1ccc(F)cc1 (stereo not drawn) -4.92%
CCCNC(=O)c1ccc(-n2c(-c3ccccc3)cc3c2CCC(C)C3)cc1 (stereo not drawn) -56.6%
CCOc1ccccc1NC(=O)c1c(NCc2sccc2C)sc2c1CCCCC2 -17.1%
C=Cc1ccc(Cn2c(C(=O)O)c(CNCc3cc(Br)ccc3OC)c3ccc(C)cc32)cc1 -5.71%
Cc1cccc(N2CCN(C(=O)CS(=O)(=O)c3cccc4nsnc34)CC2C)c1 (stereo not drawn) -19.6%
CCCN1C(=O)C2(c3ccccc31)c1c(oc3ccccc3c1=O)C(=O)N2CCO (stereo not drawn) -16.5%
NC(=O)CSc1ncc2c(n1)-c1ccccc1N(Cc1cccc(F)c1)S2(=O)=O 10.8%
COc1ccc2nc3oc(C(=O)NCc4ccccc4OC)cc3cc2c1 13.8%
COc1ccc(-c2noc(-c3nnn(-c4cc(C)ccc4C)c3N)n2)cc1 16.4%
COc1ccccc1-c1nnc(C2CCN(C(=O)c3ccc(C)cc3)CC2)o1 8.39%
Cc1ccc(-c2nc(CS(=O)CC(=O)N3CCN(c4ccc(Cl)cc4)CC3)c(C)o2)cc1 (stereo not drawn) -33.5%
CN(C)S(=O)(=O)c1ccc2c(c1)N(CC(=O)N1CCN(c3ccc(F)cc3)CC1)CCS2 -19.3%
CNC(=O)c1ccc(N2C(=S)N(c3cnc(C#N)c(C(F)(F)F)c3)C(=O)C23CCC3)cc1F -8.59%
CCN(CC)CCNC(=O)c1ccc(Cn2c(=O)c3cccn3c3cccnc32)cc1 -1.39%
Cc1ccc(-n2ncc(C(=O)NCCc3ccsc3)c2C2CCN(C(=O)OC(C)(C)C)CC2)cc1C -41.5%
Cc1cc(NC(=O)CSc2ncc(C(=O)Nc3ccc(F)cc3)c(=O)n2C)no1 -2.72%
Cc1nc2ccccc2c(=O)n1-c1ccc(NC(=O)C(F)(F)F)cc1 -7.73%
CCOc1ccccc1CNc1nc2nc(C)cc(C)n2n1 17%
CNC(=O)c1ccccc1Sc1ccc2c(/C=C/c3ccccn3)n[nH]c2c1 -11.6%
O=C(NCCCN1CCN(c2ccccc2)CC1)c1ccc2nc(Cc3ccccc3)oc2c1 -41.2%
Cc1ccc(Cn2c(C(C)NC(=O)c3ccccc3)nc3ccccc32)cc1 (stereo not drawn) -18.8%
CCOC(=O)c1c(C)[nH]c(CCC(=O)Nc2ccc(OC)c(OC)c2)c1C -16.9%
Cc1noc(C)c1S(=O)(=O)N1CCC(C(=O)N2CCN(c3cccc(C(F)(F)F)c3)CC2)CC1 -33.2%
CC(C)NC(=O)CCC(=O)N1Cc2ccccc2Oc2ncccc21 -4.78%
Cn1ccc2cc(S(=O)(=O)N3CCN(C(=O)Nc4ccc(F)cc4F)CC3)ccc21 -24.4%
CCC1CCCCN1C(=O)CSc1nc2c([nH]c3ccccc32)c(=O)n1-c1ccc(OC)cc1 (stereo not drawn) -28.1%
CC(CN1c2ccccc2Sc2ccccc21)N(C)C (stereo not drawn) -10.6%
COc1ccc(-c2cc3ccc(O)c(CN4CCC(C)CC4)c3oc2=O)cc1OC -3.58%
Cc1cccc(Cn2cccc2CNS(=O)(=O)c2ccc(Br)cc2)c1 -9.88%
COc1cc(-c2nnc(SCCOc3cc(C)cc(C)c3)o2)cc(OC)c1OC -5.13%
Cc1ccccc1CN1C(=O)c2ccccc2S(=O)(=O)c2ccc(C(=O)OCC3CCCO3)cc21 (stereo not drawn) -21.1%
Cc1ccc(C(C)C)c(OC(C)C(=O)NCC2(N(C)C)CCCCC2)c1 (stereo not drawn) -15.1%
COc1ccc(S(=O)(=O)Nc2cc(S(=O)(=O)c3ccccc3)c(O)c(C)c2C)cc1 -21.9%
Cc1cc(OC(C)C(=O)Nc2sc3c(c2C(N)=O)CCCC3)ccc1Cl (stereo not drawn) 5.27%
CC(NC(=O)CN1C(=O)c2cccnc2Oc2ccc(Cl)cc21)c1ccccc1 (stereo not drawn) -12.2%
COc1cccc(-c2nc(S(=O)(=O)c3ccc(C)cc3)c(N3CCCCC3)o2)c1 9.91%
COc1ccccc1CNC(=O)c1ccc2nc(CCc3ccccc3)oc2c1 -25.2%
COc1ccc(-c2nc(SCC(=O)Nc3c(C)cc(C)cc3C)n[nH]2)cc1 -17.6%
CCOC(=O)c1c(C)oc2ncnc(Nc3ccc(OC)c(OC)c3)c12 -22.6%
COc1ccc(Cn2c(=O)c3cccnc3n(Cc3cccc(F)c3)c2=O)cc1 -17.7%
COC(=O)c1ccc(C(=O)OC)c(NC(=O)c2ccc(-c3ccccc3)s2)c1 1.22%
CCOc1cc(N2CCC(O)CC2)ccc1Nc1ncc2c(n1)N(C)c1ccccc1C(=O)N2C -24.6%
CCOC(=O)c1ccccc1NC(=O)CSc1nccn1Cc1ccco1 -3.1%
COc1ccccc1NC(=O)c1c(C)cc(C)nc1SCC(=O)c1ccc(Cl)cc1 -17.5%
CC(C)Oc1ccc(C(=O)N(Cc2ccco2)Cc2cccs2)cc1 -25.2%
O=C(CSc1ncc(S(=O)(=O)c2ccc(Cl)cc2)c(=O)[nH]1)Nc1cccc(C(F)(F)F)c1 -1.68%
Cc1cccc(C)c1NC(=O)c1sc(-n2nc(C)c(Cc3ccccc3)c2C)nc1C 0.77%
Cc1cc(OCC(=O)N(Cc2ccc(N(C)C)cc2)CC2CCCO2)ccc1Cl (stereo not drawn) -19.2%
